The list shows a part of the results.
Assays:
[1] = tested on: HSkMC (human skeletal muscle cells); experiment: cytotoxicity call (relative viability < 0.9); details: 10 µM
[2] = tested on: HepG2; experiment: cytotoxicity call (relative viability < 0.9); details: 10 µM
[3] = tested on: S. aureus RN4220; experiment: growth inhibition call (relative growth <= 0.2); details: 50 µM

O=C(C[C@@H]1C[C@@H]2c3cc(NC(=O)Nc4ccc(C(F)(F)F)cc4)ccc3O[C@@H]2[C@H](CO)O1)NCCc1ccccc1
inactive: cytotoxicity call [1] | cytotoxicity call [2] | growth inhibition call [3]

N[C@@H](CSCC(=O)O)C(=O)O
inactive: cytotoxicity call [1] | cytotoxicity call [2] | growth inhibition call [3]

CO[C@H]1CN(C)C(=O)c2ccc(NS(=O)(=O)c3cn(C)cn3)cc2OC[C@H](C)N(CCC(F)(F)F)C[C@@H]1C
inactive: cytotoxicity call [1] | cytotoxicity call [2] | growth inhibition call [3]

C[C@@H]1CN([C@H](C)CO)C(=O)Cc2cc(NS(C)(=O)=O)ccc2O[C@H]1CN(C)S(C)(=O)=O
inactive: cytotoxicity call [1] | cytotoxicity call [2] | growth inhibition call [3]

C[C@H](CO)N1C[C@H](C)[C@H](CN(C)C(=O)C2CCCCC2)Oc2cc(C#CC3CC3)ccc2S1(=O)=O
inactive: cytotoxicity call [1] | cytotoxicity call [2] | growth inhibition call [3]

C[C@H]1CCCCO[C@H](CN(C)Cc2ccncc2)[C@@H](C)CN([C@@H](C)CO)C(=O)c2cc(NC(=O)Nc3ccc(F)cc3)ccc2O1
inactive: cytotoxicity call [1] | cytotoxicity call [2] | growth inhibition call [3]

COc1ccc(CN(C)C[C@H]2OCCCC[C@H](C)Oc3ccc(NS(=O)(=O)c4ccccc4)cc3C(=O)N([C@@H](C)CO)C[C@H]2C)cc1
inactive: cytotoxicity call [1] | cytotoxicity call [2] | growth inhibition call [3]

C=CCN(Cc1ccccc1)C(=O)[C@@H]1N(CCOCCO)C(=O)[C@@H]2[C@H](C(=O)O)[C@@H]3C=C[C@@]21O3
inactive: cytotoxicity call [1] | cytotoxicity call [2] | growth inhibition call [3]

CO[C@@H]1CN(C)C(=O)c2ccc(NS(C)(=O)=O)cc2OC[C@H](C)N(S(C)(=O)=O)C[C@H]1C
inactive: cytotoxicity call [1] | cytotoxicity call [2] | growth inhibition call [3]

C[C@@H]1CCCCO[C@@H](CN(C)S(=O)(=O)c2cn(C)cn2)[C@@H](C)CN([C@@H](C)CO)C(=O)c2cc(NS(=O)(=O)c3ccccc3)ccc2O1
inactive: cytotoxicity call [1] | cytotoxicity call [2] | growth inhibition call [3]

C[C@H](CO)N1C[C@H](C)[C@H](CN(C)C(=O)Nc2ccc(C(F)(F)F)cc2)OCCCC[C@H](C)Oc2ccc(NC(=O)c3ccccc3)cc2C1=O
inactive: cytotoxicity call [1] | cytotoxicity call [2] | growth inhibition call [3]

C[C@@H]1CCCCO[C@@H](CN(C)Cc2ccc(C(F)(F)F)cc2)[C@@H](C)CN([C@H](C)CO)C(=O)c2cc(NC(=O)Nc3ccccc3)ccc2O1
inactive: cytotoxicity call [1] | cytotoxicity call [2] | growth inhibition call [3]

C[C@@H]1CCCCO[C@@H](CN(C)CC2CC2)[C@H](C)CN([C@H](C)CO)C(=O)c2cc(NC(=O)c3ccccc3)ccc2O1
inactive: cytotoxicity call [1] | cytotoxicity call [2] | growth inhibition call [3]

CCCNC(=O)N1C[C@@H](O)COC[C@H]2O[C@H](CC(=O)N3CCOCC3)CC[C@@H]21
inactive: cytotoxicity call [1] | cytotoxicity call [2] | growth inhibition call [3]

COC1=CC(C)C2CC3OC(=O)CC4C(C)=C(OC)C(=O)C(C2(C)C1=O)C34C (stereo unspecified)
inactive: cytotoxicity call [1] | cytotoxicity call [2] | growth inhibition call [3]

Cc1noc(C)c1S(=O)(=O)Nc1cccc2c1O[C@H](CN(C)CC1CC1)[C@H](C)CN([C@H](C)CO)C2=O
inactive: cytotoxicity call [1] | cytotoxicity call [2] | growth inhibition call [3]

C[C@H](CO)N1C[C@H](C)[C@@H](CN(C)Cc2ccc(-c3ccccc3)cc2)Oc2ccc(NC(=O)Cc3cn(C)c4ccccc34)cc2C1=O
inactive: cytotoxicity call [1] | cytotoxicity call [2] | growth inhibition call [3]

N[C@@H]1CCCN(Cc2ccncc2)[C@H]1c1ccccc1F
inactive: cytotoxicity call [1] | cytotoxicity call [2] | growth inhibition call [3]

Cc1noc(C)c1NC(=O)N(C)C[C@H]1Oc2ccc(NC(=O)c3ccncc3)cc2CC(=O)N([C@@H](C)CO)C[C@H]1C
inactive: cytotoxicity call [1] | cytotoxicity call [2] | growth inhibition call [3]

COc1ccc(CN(C)C[C@H]2OCCCC[C@@H](C)Oc3ccc(NS(=O)(=O)c4ccc(OC)cc4)cc3C(=O)N([C@H](C)CO)C[C@@H]2C)cc1
inactive: cytotoxicity call [1] | cytotoxicity call [2] | growth inhibition call [3]

C[C@@H]1CN([C@H](C)CO)C(=O)c2cccc(NC(=O)Nc3cccc4ccccc34)c2O[C@@H]1CN(C)C(=O)NC1CCCCC1
inactive: cytotoxicity call [1] | cytotoxicity call [2] | growth inhibition call [3]

COc1ccccc1C#Cc1cnc2c(c1)C(=O)N([C@H](C)CO)C[C@H](C)[C@H](CN(C)C(=O)CN(C)C)O2
inactive: cytotoxicity call [1] | cytotoxicity call [2] | growth inhibition call [3]

CO[C@H]1CN(C)C(=O)c2cc(NC(=O)C3CC3)ccc2OC[C@@H](C)N(C(=O)CN2CCOCC2)C[C@H]1C
inactive: cytotoxicity call [1] | cytotoxicity call [2] | growth inhibition call [3]

C[C@H]1CN([C@@H](C)CO)S(=O)(=O)c2ccc(C#CC(C)(C)O)cc2O[C@H]1CN(C)Cc1ccccc1
inactive: cytotoxicity call [1] | cytotoxicity call [2] | growth inhibition call [3]

C[C@@H]1CN([C@@H](C)CO)C(=O)c2cccc(NC(=O)C3CCCCC3)c2O[C@H]1CN(C)C(=O)Nc1ccc(C(F)(F)F)cc1
inactive: cytotoxicity call [1] | cytotoxicity call [2] | growth inhibition call [3]

C[C@@H]1CN([C@H](C)CO)C(=O)c2cc(NC(=O)Nc3ccc(F)cc3)ccc2O[C@@H](C)CCCCO[C@H]1CN(C)Cc1ccncc1
inactive: cytotoxicity call [1] | cytotoxicity call [2] | growth inhibition call [3]

CNC(=O)c1c(I)c(NC(C)=O)c(I)c(C(=O)O)c1I
inactive: cytotoxicity call [1] | cytotoxicity call [2] | growth inhibition call [3]

From the antibiotic and cytotoxicity screens of Wong et al. (2023)
